{"source": "paper PMC6664820", "about": "“Novel natural and synthetic inhibitors of solute carriers SGLT1 and SGLT2” (Pharmacology Research & Perspectives, 2019)", "note": "About 40 (2%) of roughly 1,900 compounds showed an effect of 50% or more. The list shows a part of the results.", "data": [{"molecular_target": "human SGLT1 (hSGLT1) (human, UniProt P13866)", "sequence (P13866 whole entry, looked up)": "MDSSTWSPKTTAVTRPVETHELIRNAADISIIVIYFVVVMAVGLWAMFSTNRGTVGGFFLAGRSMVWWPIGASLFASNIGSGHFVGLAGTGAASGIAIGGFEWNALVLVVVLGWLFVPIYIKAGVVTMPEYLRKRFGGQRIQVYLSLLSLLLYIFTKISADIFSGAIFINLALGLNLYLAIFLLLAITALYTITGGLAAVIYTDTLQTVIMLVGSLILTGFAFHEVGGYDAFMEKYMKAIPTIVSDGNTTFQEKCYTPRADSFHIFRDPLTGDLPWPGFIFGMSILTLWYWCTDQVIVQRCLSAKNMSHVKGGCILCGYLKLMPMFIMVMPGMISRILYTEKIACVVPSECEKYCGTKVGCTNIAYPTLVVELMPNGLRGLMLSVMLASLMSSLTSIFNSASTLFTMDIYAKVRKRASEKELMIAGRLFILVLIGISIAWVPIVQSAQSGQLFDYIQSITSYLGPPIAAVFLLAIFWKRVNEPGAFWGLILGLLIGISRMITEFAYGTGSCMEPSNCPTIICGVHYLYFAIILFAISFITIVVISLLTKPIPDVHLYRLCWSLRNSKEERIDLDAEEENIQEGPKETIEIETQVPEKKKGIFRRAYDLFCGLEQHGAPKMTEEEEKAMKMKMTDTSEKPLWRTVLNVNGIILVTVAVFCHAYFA", "experiment": "primary screen, percent of control activity; higher = less effect of the substance", "parameters": "single well", "settings": "50 µM", "in_short": "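Single-point screen at 50 µmol/L in CHO-hSGLT1 cells, with 160 µmol/L 1-NBD-glucose in glucose-free DMEM for 90 min at 37°C. Fluorescence from isopropanol extracts was calibrated, and CHO wild-type uptake was subtracted. Data are percent of uptake without compound.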", "units": {"NORMALIZED SGLT1 ACTIVITY (%)": "%"}, "values": [{"smiles": "O=S(=O)([O-])CCS.[Na+]", "NORMALIZED SGLT1 ACTIVITY (%)": 118}, {"smiles": "CC(CN1c2ccccc2Sc2ccccc21)N(C)C.Cl", "note": "(stereo not drawn)", "NORMALIZED SGLT1 ACTIVITY (%)": 87}, {"smiles": "Cn1cnc2c1c(=O)[nH]c(=O)n2C", "NORMALIZED SGLT1 ACTIVITY (%)": 123}, {"smiles": "CS(=O)(=O)c1ccc([C@@H](O)[C@@H](CO)NC(=O)C(Cl)Cl)cc1", "NORMALIZED SGLT1 ACTIVITY (%)": 86}, {"smiles": "COC(=O)[C@@H]1OC(=O)[C@H]2O[C@@]23[C@@]1(C)CCC1[C@@]2(C)CCC(=O)C(C)(C)C2C[C@@H](OC(C)=O)[C@]13C", "note": "(stereo partly drawn)", "NORMALIZED SGLT1 ACTIVITY (%)": 159}, {"smiles": "C=C1C2=CC(=O)O[C@@H](c3ccoc3)[C@]2(C)CCC1[C@@]1(C)C=CC(=O)C(C)(C)[C@@H]1CC(=O)OC", "note": "(stereo partly drawn)", "NORMALIZED SGLT1 ACTIVITY (%)": 95}, {"smiles": "CC(CN(C)C)CN1c2ccccc2CCc2ccccc21.O=C(O)/C=C\\C(=O)O", "note": "(stereo not drawn)", "NORMALIZED SGLT1 ACTIVITY (%)": 51}, {"smiles": "COc1ccc(C(=O)O)cc1OC", "NORMALIZED SGLT1 ACTIVITY (%)": 200}, {"smiles": "Cc1cc(/C=C/c2ccc3cc(N(C)C)ccc3[n+]2C)c(C)n1-c1ccccc1.O=C([O-])c1cc2ccccc2c(Cc2c(O)c(C(=O)O)cc3ccccc23)c1O", "NORMALIZED SGLT1 ACTIVITY (%)": 275}, {"smiles": "CC(=O)OC1CC[C@@]2(C)C(CC[C@]3(C)C2CCC2C4CC(C)(C)CCC4(C(=O)O)CC[C@]23C)C1(C)C", "note": "(stereo partly drawn)", "NORMALIZED SGLT1 ACTIVITY (%)": 107}, {"smiles": "CC(=O)O[C@@H]1CC2C(C)(C)C=CC(=O)[C@]2(C)C2CC[C@@]3(C)[C@H](c4ccoc4)OC(=O)[C@H]4O[C@]43[C@@]21C", "note": "(stereo partly drawn)", "NORMALIZED SGLT1 ACTIVITY (%)": 219}, {"smiles": "COc1ccc(-c2cc(=O)c3c(OC)c(OC)c(OC)c(OC)c3o2)cc1", "NORMALIZED SGLT1 ACTIVITY (%)": 257}, {"smiles": "CC1=C(O)C(=O)C=C2C1=CC=C1[C@@]2(C)CC[C@@]2(C)[C@@H]3C[C@](C)(C(=O)O)CC[C@]3(C)CC[C@]12C", "NORMALIZED SGLT1 ACTIVITY (%)": 174}, {"smiles": "OC[C@H]1O[C@@H](n2cnc3c(O)ncnc32)[C@H](O)[C@@H]1O", "NORMALIZED SGLT1 ACTIVITY (%)": 112}, {"smiles": "CC(=O)OC[C@@]1(O)C[C@@]23CC[C@@H]4c5ccoc5CC[C@@]4(C)[C@@H]2CC[C@@H]1C3", "NORMALIZED SGLT1 ACTIVITY (%)": 119}, {"smiles": "C[n+]1cccc(C(=O)[O-])c1", "NORMALIZED SGLT1 ACTIVITY (%)": 101}, {"smiles": "CCOCN(C(=O)CCl)c1c(C)cccc1CC", "NORMALIZED SGLT1 ACTIVITY (%)": 86}, {"smiles": "COP(=O)(OC)OC(Br)C(Cl)(Cl)Br", "note": "(stereo not drawn)", "NORMALIZED SGLT1 ACTIVITY (%)": 109}, {"smiles": "COc1ccc2c(=O)c(CC(=O)O)coc2c1", "NORMALIZED SGLT1 ACTIVITY (%)": 176}, {"smiles": "COc1cc2c(cc1OC)C1Cc3ccc(OC)c(OC)c3CN1CC2", "note": "(stereo not drawn)", "NORMALIZED SGLT1 ACTIVITY (%)": 150}, {"smiles": "CC1(C)CC[C@]2(C)CC[C@]3(C)C(=CCC4[C@@]5(C)CC[C@H](O)C(C)(C)C5CC[C@]43C)C2C1", "note": "(stereo partly drawn)", "NORMALIZED SGLT1 ACTIVITY (%)": 91}, {"smiles": "C#CCCCCCCCCCCCC(O)CC(O)COC(C)=O.C=CCCCCCCCCCCCC(O)CC(O)COC(C)=O", "note": "(stereo not drawn)", "NORMALIZED SGLT1 ACTIVITY (%)": 197}, {"smiles": "COc1ccc(-c2cc(=O)c3ccc(OC)cc3o2)cc1", "NORMALIZED SGLT1 ACTIVITY (%)": 182}, {"smiles": "NCC(CC(=O)O)c1ccc(Cl)s1", "note": "(stereo not drawn)", "NORMALIZED SGLT1 ACTIVITY (%)": 93}]}]}
